Reference: the supplement of paper PMC9446081
Hit rate of the full screen: of about 39,000 compounds, about 220 (0.56%) showed activity. Some of the results follow.

Test system: Escherichia coli K-12 BW25113
Assay: relative growth (OD600 normalised to plate interquartile mean) (fraction); higher = less growth inhibition, active = 0.2 or less
Settings: 50 µM; LB; incubation time: overnight (16-24 h)
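Further: static incubation at 37 °C against the wild-type strain, values averaged over two biological replicates.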

| SMILES | relative growth |
| --- | --- |
| COc1ccc(NC(=O)Nc2ccc3c(c2)[C@@H]2C[C@@H](CC(=O)NCc4ccncc4)O[C@@H](CO)[C@@H]2O3)cc1 | inactive: 1.04 |
| C[C@H]1C[C@@H]2[C@@H](C[C@@H]1C)N[C@@H]1C(=O)NC(=O)N[C@H]1N2C[C@H](O)[C@H](O)[C@H](O)CO | inactive: 0.953 |
| O=C(C[C@@H]1CC[C@@H](NC(=O)Cc2ccccn2)[C@H](CO)O1)NCCc1ccncc1 | inactive: 0.982 |
| NCC1OC(OC2C(N)CC(N)C(OC3OC(CO)C(O)C(N)C3O)C2O)C(N)C(O)C1O.O=S(=O)(O)O (stereo not given) | active: 0.0483 |
| C[C@@H]1CN([C@H](C)CO)S(=O)(=O)c2ccc(-c3ccncc3)cc2O[C@@H]1CN(C)C(=O)c1cccc(F)c1 | inactive: 0.983 |
| O=S(=O)([O-])CCS.[Na+] | inactive: 0.985 |
| N#CCN1CCSCC1 | inactive: 1.01 |
| N[C@H]1CC[C@H](CCn2cc(-c3ccccn3)nn2)O[C@@H]1CO | inactive: 0.964 |
| CC(=O)O[C@@H]1[C@H]2OC(C)(C)O[C@H]2O[C@@H]1[C@@H](O)CO | inactive: 0.987 |
| C[C@H](CO)N1C[C@H](C)[C@@H](CN(C)C)Oc2ccc(NS(C)(=O)=O)cc2CC1=O | inactive: 0.983 |
| C[C@H]1CN([C@@H](C)CO)C(=O)c2cc(NS(=O)(=O)c3cn(C)cn3)ccc2O[C@H]1CN(C)S(=O)(=O)c1cn(C)cn1 | inactive: 1.01 |
| O=C(C[C@@H]1C[C@@H]2c3cc(NC(=O)Nc4ccccc4F)ccc3O[C@@H]2[C@H](CO)O1)NCc1ccc(Oc2ccccc2)cc1 | inactive: 0.99 |
| O=C(C[C@@H]1CC[C@@H](NC(=O)C2CC2)[C@@H](CO)O1)NCCCN1CCOCC1 | inactive: 0.943 |
| CC(C)(C)[S@](=O)N1Cc2cc(C(=O)NC3CCCCC3)nc(-c3cccc(Br)c3)c2[C@@H]1CCO | inactive: 0.966 |
| CC1(C)S[C@@H]2[C@H](NC(=O)[C@H](N)c3ccc(O)cc3)C(=O)N2[C@H]1C(=O)O | inactive: 0.516 |
| C[C@H](CS)C(=O)N1CCC[C@H]1C(=O)O | inactive: 1.03 |
| C[C@@H]1CN([C@H](C)CO)C(=O)c2cc(NC(=O)NC3CCCCC3)ccc2O[C@@H](C)CCCCO[C@@H]1CN(C)Cc1ccc2c(c1)OCO2 | inactive: 0.986 |
| C=C[C@H](CO[Si](CC)(CC)CC)N(Cc1ccc(OC(C)=O)c(OC)c1)S(=O)(=O)c1ccc(Br)cc1 | inactive: 1.03 |
| COc1ccc(NC(=O)Nc2ccc3c(c2)C(=O)N([C@@H](C)CO)C[C@H](C)[C@@H](CN(C)S(=O)(=O)c2ccc(OC)cc2)OCCCC[C@H](C)O3)cc1 | inactive: 1.01 |
| C[C@H]1CN([C@@H](C)CO)C(=O)c2cc(NC(=O)Cc3ccccc3)ccc2O[C@H]1CN(C)S(C)(=O)=O | inactive: 0.995 |

| SMILES | relative growth |
| --- | --- |
| C[C@@H]1CN([C@H](C)CO)C(=O)c2cccc(NC(=O)CCCCCC(=O)Nc3ccccc3N)c2O[C@H]1CN(C)CC1CCCCC1 | inactive: 0.952 |
| C[C@@H]1CCCCO[C@H](CN(C)Cc2ccc3c(c2)OCO3)[C@H](C)CN([C@H](C)CO)C(=O)c2cc(NC(=O)c3ccccc3)ccc2O1 | inactive: 1.02 |
| C[C@@H]1CN([C@@H](C)CO)C(=O)c2cccc(NC(=O)C3CC3)c2O[C@H]1CN(C)S(=O)(=O)c1ccc(F)cc1 | inactive: 0.993 |
| C[C@H](CO)N1C[C@H](C)[C@@H](CN(C)Cc2ccc(-c3ccccc3)cc2)Oc2ccc(NS(=O)(=O)c3cccs3)cc2CC1=O | inactive: 0.968 |
| C[C@@H]1CN([C@@H](C)CO)C(=O)c2cccc(NC(=O)Nc3ccccc3)c2O[C@@H]1CN(C)Cc1ccc(Oc2ccccc2)cc1 | inactive: 1 |
| C[C@H](CO)N1C[C@H](C)[C@@H](CN(C)S(=O)(=O)c2ccccc2)Oc2ccc(NS(=O)(=O)c3cccs3)cc2C1=O | inactive: 0.985 |
| COc1ccc(S(=O)(=O)N(C)C[C@@H]2OCCCC[C@H](C)Oc3ccc(NS(=O)(=O)c4cn(C)cn4)cc3C(=O)N([C@H](C)CO)C[C@@H]2C)cc1 | inactive: 0.883 |
| C[C@@H]1CN([C@H](C)CO)C(=O)c2cccc(NC(=O)Nc3ccc4c(c3)OCO4)c2O[C@@H]1CN(C)Cc1ccc(-c2ccccc2)cc1 | inactive: 1.02 |
| CN(C)CCCNC(=O)C[C@H]1CC[C@H]2[C@H](COc3ccc(NS(C)(=O)=O)cc3C(=O)N2C)O1 | inactive: 1.01 |
| O=C(O)CCCCCCCC(O)C(O)CCCCCCO (stereo not given) | inactive: 1.14 |
| C[C@H]1CN(C(=O)N(C)C)CCN1C(=O)N(C)C | inactive: 0.972 |
| COc1ccc(NC(=O)N(C)C[C@H]2Oc3ccc(NC(=O)CCCN(C)C)cc3C(=O)N([C@@H](C)CO)C[C@H]2C)cc1 | inactive: 0.987 |
| C[C@H]1CN([C@@H](C)CO)C(=O)c2cccc(NC(=O)Nc3cccc4ccccc34)c2O[C@H]1CN(C)S(=O)(=O)c1ccccc1 | inactive: 0.973 |
| C[C@H](CO)N1C[C@H](C)[C@H](CN(C)S(=O)(=O)c2cccs2)Oc2ccc(NS(=O)(=O)c3ccccc3)cc2CC1=O | inactive: 1.01 |
| C[C@@H]1CN([C@H](C)CO)C(=O)c2cc(NC(=O)C3CC3)ccc2O[C@H]1CN(C)S(=O)(=O)c1cccs1 | inactive: 0.992 |
| C[C@H](CO)N1C[C@H](C)[C@@H](CN(C)S(=O)(=O)c2ccc(Cl)cc2)Oc2ccc(NS(C)(=O)=O)cc2C1=O | inactive: 0.992 |
| COc1ccc(CN(C)C[C@@H]2OCCCC[C@@H](C)Oc3ccc(NC(=O)NC4CCCCC4)cc3C(=O)N([C@H](C)CO)C[C@H]2C)cc1 | inactive: 0.995 |
| COc1cccc(S(=O)(=O)Nc2ccc3c(c2)OC[C@H](C)N(C(=O)Cc2cccnc2)C[C@@H](C)[C@H](OC)CN(C)C3=O)c1 | inactive: 0.998 |
| C[C@@H]1CN([C@@H](C)CO)C(=O)c2cc(NS(C)(=O)=O)ccc2O[C@H]1CN(C)S(=O)(=O)c1ccc(F)cc1 | inactive: 1.01 |
| C[C@@H]1CN([C@H](C)CO)C(=O)c2cc(NC(=O)CCC(F)(F)F)ccc2O[C@@H](C)CCCCO[C@H]1CN(C)S(=O)(=O)c1ccccc1 | inactive: 1.03 |

| SMILES | relative growth |
| --- | --- |
| C[C@H](CO)N1C[C@H](C)[C@H](CN(C)Cc2ccccc2)OCCCC[C@H](C)Oc2ccc(NC(=O)Nc3ccc(C(F)(F)F)cc3)cc2C1=O | inactive: 1.04 |
| COCC(=O)N(C)C[C@H]1Oc2cc(-c3ccc(OC)cc3)ccc2S(=O)(=O)N([C@H](C)CO)C[C@H]1C | inactive: 0.993 |
| Cc1ccc(S(=O)(=O)Nc2ccc3c(c2)C(=O)N([C@H](C)CO)C[C@H](C)[C@H](CN(C)C(=O)NC(C)C)O3)cc1 | inactive: 1.02 |
| C[C@H]1CN([C@@H](C)CO)C(=O)Cc2cc(NC(=O)Nc3cccc4ccccc34)ccc2O[C@@H]1CN(C)S(=O)(=O)c1cccs1 | inactive: 1.02 |
| CN(C)CC(=O)N1CC(=O)N2[C@H](C1)[C@@H](c1ccc(C#Cc3cccnc3)cc1)[C@@H]2CO | inactive: 0.973 |
| C[C@@H]1CCCCO[C@@H](CN(C)S(=O)(=O)c2ccc(Cl)cc2)[C@@H](C)CN([C@@H](C)CO)C(=O)c2cc(NS(=O)(=O)c3ccc(Cl)cc3)ccc2O1 | inactive: 1 |
| CC(C)NC(=O)Nc1ccc2c(c1)C(=O)N([C@H](C)CO)C[C@@H](C)[C@H](CN(C)C(=O)Nc1ccc(C(F)(F)F)cc1)OCCCC[C@H](C)O2 | inactive: 1.01 |
| COc1ccccc1S(=O)(=O)N[C@@H]1CC[C@@H](CCNC(=O)C2CCOCC2)O[C@H]1CO | inactive: 0.995 |
| COCCOC(=O)N1C(=O)[C@@]2(c3cc(C#CC4=CCCCC4)ccc31)[C@H](c1ccc(O)cc1)N1[C@H](c3ccccc3)[C@H](c3ccccc3)OC(=O)[C@H]1[C@@H]2C(=O)N1CCN(c2ncccn2)CC1 | inactive: 0.873 |
| COc1ccc2c(=O)cc(-c3ccccc3OC)oc2c1 | inactive: 1.04 |
| O=C(C[C@H]1CC[C@@H](NS(=O)(=O)c2ccccc2F)[C@H](CO)O1)NCCCN1CCOCC1 | inactive: 0.92 |
| C[C@H](CO)N1C[C@H](C)[C@H](CN(C)C(=O)Nc2ccc(C(F)(F)F)cc2)OCCCC[C@H](C)Oc2ccc(N(C)C)cc2C1=O | inactive: 0.959 |
| Cc1cccc(S(=O)(=O)N2C[C@H](O)COC[C@@H]3O[C@H](CC(=O)NCc4ccncn4)CC[C@H]32)c1 | inactive: 1.01 |
| COc1ccc(S(=O)(=O)N(C)C[C@@H]2OCCCC[C@@H](C)Oc3ccc(NC(=O)c4ccccc4)cc3C(=O)N([C@@H](C)CO)C[C@H]2C)cc1 | inactive: 1.01 |
| COc1ccc(S(=O)(=O)N(C)C[C@H]2Oc3c(NS(=O)(=O)c4ccccc4)cccc3C(=O)N([C@H](C)CO)C[C@@H]2C)cc1 | inactive: 1.02 |
| COc1ccc(S(=O)(=O)Nc2ccc3c(c2)CC(=O)N([C@@H](C)CO)C[C@H](C)[C@H](CN(C)Cc2ccc(Oc4ccccc4)cc2)O3)cc1 | inactive: 0.989 |
| CC(C)NC(=O)Nc1ccc2c(c1)C(=O)N([C@@H](C)CO)C[C@@H](C)[C@H](CN(C)CC1CCCCC1)OCCCC[C@H](C)O2 | inactive: 0.989 |
| COc1ccc(-c2cn(CCNC(=O)[C@H](Cc3ccccc3)NS(=O)(=O)c3ccc(C)cc3)nn2)cc1OC | inactive: 0.987 |
| C[C@@H]1CN([C@@H](C)CO)C(=O)c2cc(NC(=O)Nc3ccccc3)ccc2O[C@@H](C)CCCCO[C@@H]1CN(C)S(=O)(=O)c1ccccc1 | inactive: 0.991 |
| C#C[C@@]1(O)[C@@H](CO)O[C@@H](n2ccc(N)nc2=O)[C@@H]1O | inactive: 0.989 |
